# Assay results published in article PMC4336329 (PLoS ONE, 2015).
# The whole screen tested about 310,000 compounds, of which about 14,000 (4.5%) showed an effect of 50% or more. The effect is printed as a negative number. The list shows a part of the results.
# Biological target: human ether-à-go-go-related gene (hERG) potassium channel (human, UniProt Q12809)
# Assay: primary screen, population patch clamp on CHO cells stably expressing hERG
# 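Note: peak tail current of the secondary pulse compared with the same well before compound.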
# human ether-à-go-go-related gene (hERG) potassium channel, sequence (Q12809 whole entry, looked up): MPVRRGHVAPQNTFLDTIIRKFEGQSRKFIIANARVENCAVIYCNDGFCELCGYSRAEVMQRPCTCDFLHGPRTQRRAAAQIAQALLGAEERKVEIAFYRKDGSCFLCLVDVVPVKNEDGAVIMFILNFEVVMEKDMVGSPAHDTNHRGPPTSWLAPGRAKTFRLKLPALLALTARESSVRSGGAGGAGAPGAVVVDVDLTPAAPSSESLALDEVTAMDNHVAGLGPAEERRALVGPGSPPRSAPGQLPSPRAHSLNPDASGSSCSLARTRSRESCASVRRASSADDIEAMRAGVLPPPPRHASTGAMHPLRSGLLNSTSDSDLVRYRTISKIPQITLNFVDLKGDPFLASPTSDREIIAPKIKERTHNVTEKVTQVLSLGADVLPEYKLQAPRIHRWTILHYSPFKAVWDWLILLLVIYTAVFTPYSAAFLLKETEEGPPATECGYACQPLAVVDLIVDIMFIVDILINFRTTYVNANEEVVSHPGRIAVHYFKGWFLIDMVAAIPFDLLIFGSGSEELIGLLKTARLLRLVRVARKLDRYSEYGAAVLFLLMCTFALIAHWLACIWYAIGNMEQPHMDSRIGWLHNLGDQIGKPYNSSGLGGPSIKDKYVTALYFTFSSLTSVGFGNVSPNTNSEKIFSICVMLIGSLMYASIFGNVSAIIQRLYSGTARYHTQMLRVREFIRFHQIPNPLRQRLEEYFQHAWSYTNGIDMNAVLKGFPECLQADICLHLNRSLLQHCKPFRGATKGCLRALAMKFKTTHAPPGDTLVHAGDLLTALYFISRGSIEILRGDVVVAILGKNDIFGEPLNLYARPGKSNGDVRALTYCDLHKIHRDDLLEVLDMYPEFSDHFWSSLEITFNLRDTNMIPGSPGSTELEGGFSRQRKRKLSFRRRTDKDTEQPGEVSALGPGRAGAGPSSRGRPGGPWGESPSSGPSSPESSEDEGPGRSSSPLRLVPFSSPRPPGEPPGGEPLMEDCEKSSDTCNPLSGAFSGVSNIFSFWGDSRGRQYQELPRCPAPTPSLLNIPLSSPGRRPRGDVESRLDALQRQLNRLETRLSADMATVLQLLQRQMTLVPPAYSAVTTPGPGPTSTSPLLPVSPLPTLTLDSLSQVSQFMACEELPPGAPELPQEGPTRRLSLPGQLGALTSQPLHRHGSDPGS
row,Compound,"hERG current change (%, negative = inhibition) at 10uM"
1,Cc1ccc(-c2nnc(N(C)C(=O)C3CCCO3)s2)cn1 (centres unmarked),6.74%
2,O=C(CSc1nc(O)c(Cc2ccccc2)c(=O)[nH]1)c1ccccc1,17.8%
3,CCN1CCN(CC(=O)N2N=C(c3cccs3)CC2c2ccc(OC)cc2)C(=O)C1=O (centres unmarked),-8.83%
4,Cc1nc(C(C)NC(=O)c2cc(COc3ccc(C)c(C)c3)on2)c(C)s1 (centres unmarked),16.2%
5,CCOc1ccc(S(=O)(=O)N2CCCCC2)cc1NC(=O)CN1CCCC1c1cccs1 (centres unmarked),8.64%
6,COc1ccc(C(=O)NC(=O)CSc2nnc(-c3ccco3)n2-c2ccccc2)cc1,2.28%
7,COc1cccc(-n2nc(C(=O)N3CC(C)CC(C)C3)c3ccccc3c2=O)c1 (centres unmarked),3.43%
8,Cc1c(NS(=O)(=O)c2cc(Br)cc3c2N(C(=O)C2CC2)CC3)c(=O)n(-c2ccccc2)n1C,6.98%
9,Cc1c(C(=O)O)sc2nc(SCC(=O)Nc3ccc(S(=O)(=O)NC(C)(C)C)cc3)[nH]c(=O)c12,28.5%
10,Cc1onc(C(=O)N2CCN(c3ccccc3)CC2)c1[N+](=O)[O-],16.1%
11,O=C(OCc1cc([N+](=O)[O-])cc2c1OCOC2)c1ccc2ccccc2n1,14.3%
12,CCCn1c(SCC(=O)Nc2ccc(C(=O)Nc3ccccc3OC)cc2)n[nH]c1=O,11.9%
13,Cc1nnc(NC(=O)CSC2=NN3CCCC(=O)N=C3S2)s1,2.76%
14,C/C=C/Cn1c(Br)nc2c1c(=O)[nH]c(=O)n2C,-24.8%
15,COc1cccc(C(=O)NCc2nnc(SCC(=O)Nc3nccs3)n2-c2cccc(C)c2)c1,-18.3%
16,Cc1oc(-c2ccccc2F)nc1CS(=O)(=O)CC(=O)NCc1ccccc1Cl,-17.9%
17,O=C(c1ccc(Cl)cc1)C1CCCN(Cc2ccc3ncccc3c2)C1 (centres unmarked),-64.3%
18,CC(C)(C)OC(=O)N1CCN(c2ccc([N+](=O)[O-])cc2)CC1,-73.3%
19,CCc1ccc(CNC(=O)C2CCCN(c3nn4c(=O)cc(C)nc4s3)C2)cc1 (centres unmarked),-36.2%
20,Clc1ccc(Nc2nc(-c3cccs3)cs2)nc1,-1.04%
21,CN(C)S(=O)(=O)N1CCN(c2ccnc3cc(Cl)ccc23)CC1,-76.2%
22,C=CCn1c(SCC(=O)N2CCOCC2)nc2sc(C)c(C)c2c1=O,-47.6%

row,Compound,"hERG current change (%, negative = inhibition) at 10uM"
1,O=C(CSc1ccc(-c2ccco2)nn1)NCc1ccc(Cl)cc1,-13.3%
2,O=C(NCCc1cn2ccsc2n1)c1cccs1,0.575%
3,COc1cc(/C=N/N2CCN(Cc3ccc(Cl)cc3)CC2)ccc1OC(C)=O,-4.64%
4,O=C(NCCn1ccc2ccccc21)c1cccc([N+](=O)[O-])c1,-16.9%
5,O=C(O)c1ccccc1C1Nc2ccccc2C(=O)N1CCCN1CCOCC1 (centres unmarked),18.4%
6,CCCCc1ccc(NC(=S)N2CCCC(C)C2)cc1 (centres unmarked),-1.14%
7,CCOC(=O)/C=C/C(=O)OCC(=O)N1CCN(C(=O)c2ccco2)CC1,9.59%
8,O=C1CC2(CCCC2)CC(=O)N1c1ccccc1,18.7%
9,O=C(COc1ccc(C(=O)O)cc1)Nc1cccc(C(F)(F)F)c1,22.5%
10,CCNc1nc(Oc2ccc(Cl)cc2Cl)cc(C(F)(F)F)n1,-16%
11,CN(C)C(CNc1ccc(C(F)(F)F)cc1[N+](=O)[O-])c1ccccc1 (centres unmarked),-25.7%
12,COc1ccc(-c2[nH]ncc2C=O)cc1,6.78%
13,CCOC(=O)C1(CCOc2ccccc2)CCN(C(=O)c2ccc(-n3cccn3)cc2)CC1,-78.9%
14,Cc1cc(C(=O)OCC(=O)c2c(N)n(C)c(=O)n(C)c2=O)c(C)o1,5.21%
15,CCOc1ccccc1Oc1cn[nH]c1-c1ccc(OC)cc1O,-9.1%
16,Cc1cccc(N2CCN(C(=O)CNC(=O)c3cccc([N+](=O)[O-])c3)CC2)c1C,-48.1%
17,CC(NC(=O)c1cc([N+](=O)[O-])cc([N+](=O)[O-])c1)C1CC2CCC1C2 (centres unmarked),-7.55%
18,COCCn1c(SCC(=O)c2ccccc2)nc2c(c1=O)SCC2,-31.3%
19,CCN1CCN(C(CC(C)C)c2nnnn2CS(=O)(=O)c2ccc(C)cc2)CC1.Cl (centres unmarked),1.9%
20,CCOC(=O)c1c(C)nc2c(c1-c1cc(OC)ccc1OC)C(=O)c1ccccc1-2,-5.45%
21,COC(=O)CSc1nnc(CNc2ccc(Cl)cc2)n1Cc1ccccc1,-54.7%
22,CC1=CC(=O)C(C(C)C)=C/C1=C(\c1cc(C(C)C)c(OP(=O)([O-])[O-])cc1C)c1ccccc1C(=O)O.[Na+],23.3%
